This note sets out measurements from ChEMBL document CHEMBL5308541, “MAIP: An Open-Source Tool to Enrich High-Throughput Screening Output and Identify Novel, Druglike Molecules with Antimalarial Activity” (ACS Med Chem Lett, 2023).

Hit rate of the full screen: of about 150,000 compounds, about 540 (0.36%) showed an effect of 50% or more. Some of the results follow.

The experiment concerns Plasmodium falciparum. Nature of the experiment: Primary screen in NF54 nanoGlo assay, in single point, at 2uM, 72h; a lower Z score goes with more inhibition. The experiment is classed as functional, Erythrocyte. Particulars: timepoint 72 hour.
Turning to `Cc1ccc(-c2cc(C(=O)N3CC4CCC3CN(C3CCOCC3)C4)[nH]n2)cc1` (centres undefined), the % Inhibition (usually the relative decrease from the control value, in per cent) is -11% and the Z score is 2.46.
Consider `COc1ccc(C2C(C(=O)N3CCC(C)CC3)OCC(=O)N2C2CC2)cc1` (centres undefined), for which the “% Inhibition” value is reported as -14% and the Z score is 2.94.
In the same order, the values of `CN1CCO[C@@H](CN(Cc2ccc3c[nH]nc3c2)CC2CC2)C1` are -5% and 0.73.
Regarding `CCNc1cc(CNc2ncnc3scc(C)c23)ccn1`, the “% Inhibition” value was -2% and the Z score is 0.33.
Taken in the same sequence, the figures for `CCN(Cc1noc(C)n1)C(=O)[C@H]1CC(=O)N(CC(C)C)C1` were -7% and 1.26.
In the same order, the values of `N#Cc1ccc(CCCN[C@H]2CCc3c(O)cccc32)cc1` are -10% and 1.58.
As for `FC(F)(F)c1cn2c(n1)CCC(CNc1nccc(NC3CCCOC3)n1)C2` (centres undefined), the “% Inhibition” value is reported as 9% and the Z score is listed as -1.59.
Turning to `CC(C)c1cc(NCCN2CCCCC2)ncn1`, the “% Inhibition” value is given as 2% and the Z score was -0.34.
Take `COC(=O)C1CCC(Nc2cccc(CN3CCN(C)CC3)c2)CC1` (centres undefined): the “% Inhibition” value is -8% and the Z score was 1.26.
On to `CNC(=O)c1ccnc(N[C@H]2CCCN(CC3CCCCC3)C2)c1`, for which the “% Inhibition” value stood at 2% and the Z score was -0.35.
In the same order, the values of `FC(F)(F)c1nc(NCc2cc3ccccc3[nH]2)c2ccccc2n1` are -19% and 3.26.
As to `Cc1nc2ccccc2c(O)c1CC[C@H](C)NC1CCNCC1`, the “% Inhibition” value is given as -3% and the Z score is 0.51.
Regarding `Cc1cc(NC(=O)c2cnn(CCN(C)C)c2)nn1CCC#N`, the “% Inhibition” value is -1% and the Z score was 0.15.
On to `Clc1cccc(CN2CCCN(c3ncccc3-c3nc(C4CC4)no3)CC2)c1`, for which the “% Inhibition” value was 4% and the Z score is recorded as -0.8.
As to `CNC(=O)c1cc(Oc2cccc(NCc3noc(-c4scnc4C)n3)c2)ccn1`, the “% Inhibition” value was determined as 2% and the Z score is -0.29.
`CC1CC(NC2CC3CCC(C2)N3C(=O)OC(C)(C)C)CCN1C` (centres undefined): the “% Inhibition” value is recorded as -10% and the Z score is 1.73.
Consider `COCCN1CCC(NCc2ccc(-c3scnc3C)cc2)CC1`, for which the “% Inhibition” value was 3% and the Z score is given as -0.55.
In the case of `O=C(N[C@H]1CC[C@H](O)CC1)c1cccc(-c2ccnc3ccccc23)c1`, the “% Inhibition” value is on record as -2% and the Z score amounted to 0.24.
As to `OC1CC(c2ccc(F)c(F)c2)N(c2cc(NCC3CC3)ncn2)C1` (centres undefined), the “% Inhibition” value is -2% and the Z score was 0.39.
Turning to `Fc1cccc(N[C@H]2CCCN(Cc3cnc(N4CCOCC4)s3)C2)c1`, the “% Inhibition” value is given as -11% and the Z score was 1.9.
In the same order, the values of `CC(C)C[C@H](NC(=O)c1cc2ccc(Br)cc2[nH]1)C(=O)Nc1cc[nH]n1` are -1% and 0.2.
Regarding `N#C[C@H](c1cccs1)N1CCN(C(=O)CN2CCC(N3CCCCC3)CC2)CC1`, the “% Inhibition” value is -11% and the Z score is 2.41.
On to `C=C(C)COc1cc(CNc2ccc3[nH]nnc3c2)ccc1OC`, for which the “% Inhibition” value was determined as 5% and the Z score is recorded as -0.86.
Consider `Oc1cccc(C2CCN(CCN3CC4CCC3C4)CC2)c1` (centres undefined), for which the “% Inhibition” value is -1% and the Z score came to 0.22.
Taken in the same sequence, the figures for `CNc1nc(N[C@H]2CCCN(c3nc4ccccc4s3)C2)nc2c1CCC2` were -11% and 1.75.
As to `FC(F)(F)c1nc(NC2CCN(C3CCCC3)CC2)c2nc[nH]c2n1`, the “% Inhibition” value is recorded as -10% and the Z score amounted to 1.72.
With `Cc1nn(C)c2c(N3CCC(C(=O)NCCCN4CCC(N5CCCCC5)CC4)CC3)nccc12`, the “% Inhibition” value is -1% and the Z score amounted to 0.11.
`CCN1CCC[C@H](Nc2cccc(-n3ccnc3)n2)C1`: the “% Inhibition” value is 46% and the Z score was -6.91.
Regarding `Fc1ccc2[nH]c(C3CCN(Cc4cc(-c5ccncc5)no4)CC3)nc2c1`, the “% Inhibition” value was -1% and the Z score was 0.3.
`Cc1nc(N[C@H]2CCCN(Cc3ccccc3F)C2)c2cccnc2n1`: the “% Inhibition” value amounted to 1% and the Z score is given as -0.14.
With `N#Cc1ccc2nc(N[C@H]3CCN(C(=O)C4CCCC4)C3)ccc2c1`, the “% Inhibition” value is on record as -6% and the Z score is on record as 1.36.
As to `COc1ccc(-c2n[nH]cc2-c2c(-c3ccccc3)ncn2CCCO)cc1`, the “% Inhibition” value is listed as -14% and the Z score worked out at 2.94.
Regarding `CNc1cc(N2CCC[C@H](CNCCn3cccn3)C2)ncn1`, the “% Inhibition” value was -3% and the Z score is reported as 0.69.
Consider `CN1CCN(CCOc2ccccc2-c2nccn2-c2ccc3c(c2)COC3)CC1`, for which the “% Inhibition” value amounted to 0% and the Z score was -0.09.
`CCc1cc(-c2cc(-c3ccc(N4CCOCC4)cc3)nc(N)c2C#N)[nH]n1`: the “% Inhibition” value worked out at 7% and the Z score is on record as -1.18.
Consider `O=C(C1CNCC(C(=O)N2CCN(c3ccncc3)CC2)C1)N1CCOCC1` (centres undefined), for which the “% Inhibition” value is reported as -15% and the Z score was determined as 3.14.
With `O=C(C[C@@H](C(F)F)N1CCOCC1)NCc1ccnc2ccccc12`, the “% Inhibition” value came out at 8% and the Z score is on record as -1.66.
Consider `Fc1cccc(N2CCCC2)c1CNc1nccc(N[C@H]2CCCOC2)n1`, for which the “% Inhibition” value was -3% and the Z score was found to be 0.56.
For the compound `CN1CCC(N2CCC[C@H]2C(=O)NCc2ccccc2-n2ccnc2)CC1`, the “% Inhibition” value is listed as 6% and the Z score is listed as -1.08.
Regarding `COC1CCN(c2ccc(NC(=O)c3cccc(-c4cnc5[nH]c(=O)n(C)c5c4)c3)cc2C(F)(F)F)CC1`, the “% Inhibition” value is -5% and the Z score turned out to be 1.09.
`O=C([C@H]1CCCN(C2CCN(c3ccnc4ccccc34)CC2)C1)N1CCCC1`: the “% Inhibition” value is on record as -6% and the Z score was 1.
With `CN1CCC2(CCN(C(=O)c3ccc(-c4ccc5nc[nH]c5c4)cc3)CC2)C1`, the “% Inhibition” value was -6% and the Z score worked out at 1.22.
As for `FC(F)(F)c1ccc(N2CCC(NCc3csc(-c4cnccn4)n3)CC2)nc1`, the “% Inhibition” value is recorded as -8% and the Z score stood at 1.42.
Take `CN1CCC[C@@H]1CCNC(=O)c1ccc(-c2cc3ccccc3s2)nc1N1CCOCC1`: the “% Inhibition” value is -5% and the Z score stood at 0.9.
Consider `CC(C)Nc1ncc(-c2cc(-c3ccc(F)c(F)c3)nc(N)c2C#N)cn1`, for which the “% Inhibition” value is reported as -4% and the Z score turned out to be 0.68.
Turning to `CCN1C[C@@H](n2cnc(-c3ccccc3)c2-c2ccc3cccc(O)c3n2)CC1=O`, the “% Inhibition” value is -3% and the Z score was found to be 0.58.
As for `Cc1cc2nc(-c3ccc(CNC(=O)c4cccc(N5CCOC5=O)c4)cc3)[nH]c2cc1C`, the “% Inhibition” value was -7% and the Z score was 1.18.
`COc1cc(-c2nc3sc4ccccc4n3c2NCCCOC(C)C)ccc1O`: the “% Inhibition” value was -1% and the Z score was 0.14.
Consider `FC(F)(F)c1cc(N2CCC(Oc3cnccn3)CC2)ccn1`, for which the “% Inhibition” value turned out to be 2% and the Z score is on record as -0.35.
Turning to `O[C@H]1CCN(c2ccnc(N3CCN(Cc4cccc5[nH]ccc45)CC3)n2)C1`, the “% Inhibition” value is listed as 7% and the Z score was -1.14.
Consider `Cc1ccc2c(c1)N(C[C@H](O)COc1cccc3[nH]ccc13)CCCO2`, for which the “% Inhibition” value amounted to 1% and the Z score was -0.18.
Taken in the same sequence, the figures for `CC(C)(C)C(=O)Cn1cc(C(=O)N2CCCc3cc(F)ccc32)nn1` were -7% and 1.07.
